From PubChem BioAssay AID1159614 (National Center for Advancing Translational Sciences (NCATS), 2016)
In all, about 45,000 compounds went through this assay and about 65 (0.1%) were called active. The call rests on the fitted dose curve; in most records, active means well fitted activation curve with a large enough effect; inconclusive means small, poorly fitted or top-dose-only effect; inactive means no such curve, though single readings can be large or run the other way. Some of the results follow. Peptide text beside a SMILES is read from it.

biological target: Galactocerebrosidase (Homo sapiens) (UniProt P54803); assay: A Novel Cell-Based Assay to Identify Small Molecules for B -Galactocerebrosidase; conditions: 145M-Twi-hGALC-G270D cells (Twitcher mouse brain line with human GALC G270D), HMU-beta-Gal fluorescence, 48 h; series mostly up to 57.5 µM; activation: at the top concentration; further: 0% is about no effect; nearly all actives have a fitted effect of over 65% in size
UniProt P54803, sequence (P54803 whole entry, looked up): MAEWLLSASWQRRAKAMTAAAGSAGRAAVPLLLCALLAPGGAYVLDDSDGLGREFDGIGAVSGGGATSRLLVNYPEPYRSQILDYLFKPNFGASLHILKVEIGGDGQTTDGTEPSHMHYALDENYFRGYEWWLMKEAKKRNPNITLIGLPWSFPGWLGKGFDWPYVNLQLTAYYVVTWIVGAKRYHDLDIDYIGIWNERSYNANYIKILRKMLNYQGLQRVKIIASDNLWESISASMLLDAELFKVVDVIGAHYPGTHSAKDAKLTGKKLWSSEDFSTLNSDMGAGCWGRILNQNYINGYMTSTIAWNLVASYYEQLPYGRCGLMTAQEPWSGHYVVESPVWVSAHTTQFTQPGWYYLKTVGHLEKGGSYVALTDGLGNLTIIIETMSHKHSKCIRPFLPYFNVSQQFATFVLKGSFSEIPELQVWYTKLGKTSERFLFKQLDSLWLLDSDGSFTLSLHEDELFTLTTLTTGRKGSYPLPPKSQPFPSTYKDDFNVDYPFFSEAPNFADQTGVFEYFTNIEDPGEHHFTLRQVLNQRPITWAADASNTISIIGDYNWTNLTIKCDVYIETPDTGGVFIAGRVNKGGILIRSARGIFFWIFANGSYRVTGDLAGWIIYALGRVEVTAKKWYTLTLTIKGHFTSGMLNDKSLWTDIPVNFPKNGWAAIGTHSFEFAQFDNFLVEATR
In short: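 Fluorescence readout: HMU-β-gal cleavage by mutant GALC (0.1 mM final, citrate/phosphate pH 5.2 with 1 mg/mL taurocholate), stopped with carbonate/bicarbonate plus Triton X-100. Cells: murine Twitcher 145M-Twi expressing human G270D GALC; qHTS for activators.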

activation, inactive:
COc1cc(NC(=O)Cn2c(SCc3ccc(F)cc3)nc3cccnc32)cc(OC)c1 -15.9%, Cc1cc(C)cc(-n2cnc3cc(C(=O)NCCc4ccccc4)ccc32)c1 -16.7%, Brc1csc(CN2CCc3nc(Nc4ccccc4)ncc3C2)c1 -5.74%, Cc1cccc(NC(=O)c2cc(S(=O)(=O)N3CCCCC3)c[nH]2)c1C -12.2%, Cc1cccc(Cn2c(SCc3ccc(C(=O)N4CCCCCC4)cc3)nc3ccncc32)c1 -26.7%, COc1cc(CN(C(=O)c2cc3ccccc3oc2=O)C2CCS(=O)(=O)C2)cc(OC)c1OC (stereo unspecified) -9.66%, O=C(c1cccc(Cl)c1)n1nc(-c2ccco2)nc1NCc1cccs1 -15.9%, O=C(CNC(=O)c1ccccc1Cl)OCc1cc(=O)n2ccsc2n1 -14%, Cc1ccc(CNC(=O)c2ccc3c(c2)nc(C)n3-c2cccc(F)c2)cc1 -6.57%, CCOc1ccc(NC(=O)CSC2=Nc3ccccc3C3=NC(CCC(=O)NCc4ccccc4)C(=O)N23)cc1 (stereo unspecified) -18.6%, CC(NC(=O)c1ccc2c(c1)CCN2S(C)(=O)=O)c1ccccc1 (stereo unspecified) -12.5%, Cc1c(Cl)cccc1NC(=O)c1cccc(NC(=O)N2CCSc3ncccc32)c1 -13.4%, CCCCOc1ccc(-c2nn(-c3ccccc3)cc2C2NC(=O)NC(C)=C2C(=O)OCC)cc1 (stereo unspecified) -27.5%, Cc1cc(C(F)(F)F)n2nc(-c3ccc(Br)cc3)cc2n1 -12.2%, Cc1ccc(C(=O)N2c3ccc(C)cc3C(C)(c3ccccc3)CC2(C)C)cc1 (stereo unspecified) -10.7%, COc1ccc(OCC(=O)NCc2ccc3c(c2)CCN3C(=O)c2ccccc2)cc1 -26.8%, COc1ccccc1N1CCN(c2ncnc3c2cnn3-c2cc(Cl)ccc2C)CC1 -13.8%, CCc1ccc(C(=O)c2cn(CC(=O)Nc3cccc(OC)c3)c3ccc(OC)cc3c2=O)cc1 -20.8%, Cc1cc2oc(C(=O)Nc3ccc(S(N)(=O)=O)cc3)cc(=O)c2cc1C -18.6%, O=C(NCCc1ccccc1)c1cnc2sc(N3CCCCCC3)nn2c1=O -3.38%, O=C(c1cc2ccccc2oc1=O)N1CCN(c2ccc(Cl)cc2)CC1 -1.76%, CCOC(=O)c1ccc(N2C(=O)c3[nH]nc(-c4ccc(C)cc4)c3C2c2cccc(F)c2)cc1 (stereo unspecified) -2.79%, Cc1ccc(CSc2nc3ccc(NC(=O)COc4ccccc4)cc3s2)cc1 -15.1%, CC(=O)N[C@@H](CO)C(=O)N[C@@H](CC(=O)O)C(=O)N[C@@H](CCCCN)C(=O)N1CCC[C@H]1C(=O)O (Ac-SDKP-OH) -13.2%, CCc1cccc(NC(=O)CN2C(=O)COc3ccc(S(=O)(=O)Nc4ccccc4)cc32)c1 6.65%, Cc1ccc(NC(=O)c2ccc(-c3cccc(Cl)c3C)o2)cc1 5.85%
